Source: the supplement of paper PMC9446081
In all, about 39,000 compounds went through this assay and about 220 (0.56%) showed activity. This is one part of the list.

Tested on: Escherichia coli K-12 BW25113
Assay: relative growth (OD600 normalised to plate interquartile mean) (fraction); higher = less growth inhibition, active = 0.2 or less
Conditions: 50 µM; LB; incubation time: overnight (16-24 h)
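Note: static incubation at 37 °C against the wild-type strain, values averaged over two biological replicates.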

| SMILES | relative growth |
| --- | --- |
| COc1ccc(CN(C)C[C@H]2OCCCC[C@H](C)Oc3ccc(NS(=O)(=O)c4ccc(C)cc4)cc3C(=O)N([C@@H](C)CO)C[C@@H]2C)cc1 | inactive: 0.982 |
| COc1ccc(NC(=O)N(C)C[C@H]2Oc3ccc(NC(=O)Cn4cnnn4)cc3CC(=O)N([C@@H](C)CO)C[C@H]2C)cc1 | inactive: 0.994 |
| C[C@H](CO)N1C[C@H](C)[C@@H](CN(C)C(=O)Nc2cccc3ccccc23)OCCCC[C@H](C)Oc2ccc(NC(=O)Nc3ccc(F)cc3)cc2C1=O | inactive: 1.04 |
| C[C@H](CO)N1C[C@H](C)[C@H](CN(C)S(=O)(=O)c2ccc(Cl)cc2)Oc2ccc(NC(=O)Cn3cnnn3)cc2C1=O | inactive: 1.01 |
| O=C(O)c1cncnc1N1CCCC1 | inactive: 1.03 |
| Cc1noc(C)c1S(=O)(=O)N(C)C[C@H]1Oc2ccc(NS(=O)(=O)c3ccc(Cl)cc3)cc2C(=O)N([C@H](C)CO)C[C@H]1C | inactive: 1.04 |
| C[C@@H]1CCCCO[C@@H](CN(C)C(=O)CCC(F)(F)F)[C@@H](C)CN([C@H](C)CO)C(=O)c2cc(NS(=O)(=O)c3cccs3)ccc2O1 | inactive: 0.968 |
| C[C@H]1CCCCO[C@H](CN(C)C(=O)Nc2ccccc2)[C@@H](C)CN([C@@H](C)CO)C(=O)c2cc(NC(=O)Cc3ccccc3)ccc2O1 | inactive: 1.01 |
| C[C@@H]1CCCCO[C@H](CN(C)C(=O)Nc2ccc(F)cc2)[C@@H](C)CN([C@@H](C)CO)C(=O)c2cc(NC(=O)CCCN(C)C)ccc2O1 | inactive: 1.01 |
| CC(C)(C)S(=O)N1Cc2cc(C(=O)N[C@@H]3CCN(Cc4ccccc4)C3)nc(-c3cccc(C#CCC4CCCC4)c3)c2[C@@H]1CCO (some centres not stated) | inactive: 1.06 |
| O=C(Nc1ccccc1)c1ccccc1 | inactive: 0.985 |
| C[C@@H]1CN([C@H](C)CO)S(=O)(=O)c2ccc(Br)cc2O[C@H]1CN(C)Cc1cccc(C(=O)O)c1 | inactive: 0.987 |
| C[C@H]1CN([C@@H](C)CO)C(=O)c2cccc(NS(=O)(=O)c3ccccc3)c2O[C@H]1CN(C)Cc1ccc(Cl)c(Cl)c1 | inactive: 1.06 |
| Nc1nc(F)nc2c1ncn2[C@@H]1O[C@H](CO)[C@@H](O)[C@H]1O | inactive: 0.259 |
| CC(=O)N(C)C1(c2ccccc2)CCN(CCC[C@]2(c3ccc(Cl)c(Cl)c3)CCCN(C(=O)c3ccccc3)C2)CC1 | inactive: 0.956 |
| COc1ccccc1C#Cc1cnc2c(c1)C(=O)N([C@H](C)CO)C[C@@H](C)[C@H](CN(C)C(=O)CC1CC1)O2 | inactive: 1.04 |
| COc1ccc(S(=O)(=O)N(C)C[C@H]2Oc3ccc(NS(=O)(=O)c4c(C)noc4C)cc3C(=O)N([C@@H](C)CO)C[C@H]2C)cc1 | inactive: 0.993 |
| Cc1noc(C)c1S(=O)(=O)Nc1ccc2c(c1)C(=O)N([C@@H](C)CO)C[C@@H](C)[C@H](CN(C)C(=O)Nc1ccc(F)cc1)OCCCC[C@H](C)O2 | inactive: 1.03 |
| COCC#Cc1cnc2c(c1)C(=O)N([C@@H](C)CO)C[C@H](C)[C@@H](CN(C)C(=O)Nc1ccc(OC)cc1)O2 | inactive: 0.985 |

| SMILES | relative growth |
| --- | --- |
| C[C@@H]1CN([C@@H](C)CO)C(=O)c2cc(NC(=O)NC3CCCCC3)ccc2O[C@H]1CN(C)Cc1ccc(C(=O)Nc2ccccc2N)cc1 | inactive: 1.01 |
| COc1ccc(S(=O)(=O)N2c3ccc(Cl)cc3[C@](O)(c3ccccc3Cl)[C@@H]2C(=O)N2CCC[C@H]2C(N)=O)cc1OC | inactive: 1.02 |
| Cn1cnc(S(=O)(=O)N2C[C@H](O)COC[C@@H]3O[C@@H](CC(=O)NCc4ccc(F)cc4)CC[C@H]32)c1 | inactive: 0.99 |
| COc1ccc(NC(=O)Nc2ccc3c(c2)C(=O)N([C@@H](C)CO)C[C@@H](C)[C@H](CN(C)S(=O)(=O)c2ccccc2)OCCCC[C@H](C)O3)cc1 | inactive: 1.02 |
| C[C@H](CO)N1C[C@H](C)[C@@H](CN(C)Cc2ccc(-c3ccccc3)cc2)Oc2ccc(NS(=O)(=O)c3ccccc3)cc2CC1=O | inactive: 0.995 |
| NC(=O)CC1=NC(=O)CS1 | inactive: 1.02 |
| O=C(C[C@H]1CC[C@H]2[C@@H](COC[C@@H](O)CN2S(=O)(=O)c2ccc(Cl)cc2)O1)NCC1CCCCC1 | inactive: 0.99 |
| CO[C@H]1CN(C)C(=O)c2ccc(NC(=O)Nc3cccc(Cl)c3)cc2OC[C@H](C)N(C(=O)Nc2c(C)noc2C)C[C@H]1C | inactive: 0.986 |
| C[C@@H]1CCCCO[C@@H](CN(C)C(=O)Nc2ccc3c(c2)OCO3)[C@H](C)CN([C@H](C)CO)C(=O)c2cc(NS(=O)(=O)c3ccc(F)cc3)ccc2O1 | inactive: 1.01 |
| COc1ccc(S(=O)(=O)Nc2cccc3c2O[C@H](CN(C)S(=O)(=O)c2c(C)noc2C)[C@H](C)CN([C@@H](C)CO)C3=O)cc1 | inactive: 0.981 |
| CCC(=O)N[C@@H]1CC[C@H](CC(=O)OC)O[C@H]1CO | inactive: 0.989 |
| C[C@@H]1CN([C@@H](C)CO)C(=O)c2cc(NC(=O)CCN3CCOCC3)ccc2O[C@@H]1CN(C)Cc1ccccc1 | inactive: 1 |
| C[C@@H]1CCCCO[C@H](CN(C)C(=O)c2ccccc2)[C@@H](C)CN([C@@H](C)CO)C(=O)c2cc(NS(=O)(=O)c3ccccc3)ccc2O1 | inactive: 0.956 |
| O=C(C[C@H]1C[C@H]2c3cc(NS(=O)(=O)c4ccc(F)cc4)ccc3O[C@H]2[C@H](CO)O1)NC1CCCCC1 | inactive: 1 |
| CCC(=O)NCc1nc(C)cc(N(C)C)n1 | inactive: 1.04 |
| COc1ccc2c3c([nH]c2c1)[C@@H](CO)N(C[C@]13CCN(CC1)C(=O)c1ccncc1)C(=O)c1ccncc1 | inactive: 1 |
| C[C@H](CO)N1C[C@H](C)[C@H](CN(C)Cc2ccncc2)OCCCC[C@H](C)Oc2ccc(NC(=O)Nc3ccc4c(c3)OCO4)cc2C1=O | inactive: 1.01 |
| CCCN(C)C[C@H]1OCCCC[C@@H](C)Oc2ccc(NC(=O)c3ccccc3)cc2C(=O)N([C@@H](C)CO)C[C@H]1C | inactive: 1.02 |
| C[C@@H]1CN([C@H](C)CO)C(=O)c2cccc(NC(=O)C3CC3)c2O[C@H]1CN(C)Cc1ccc2c(c1)OCO2 | inactive: 0.987 |

| SMILES | relative growth |
| --- | --- |
| O=C1NCCOc2ccc([N+](=O)[O-])cc21 | inactive: 0.984 |
| C=CCOC(=O)[C@@H]1[C@H]2C(=O)O[C@H](c3ccccc3)[C@H](c3ccccc3)N2[C@H](c2ccc(OCCOC(=O)[C@@H]3C[C@@H]4C(=O)N[C@@H](CCCCNC(C)=O)C(=O)N4[C@@H]3c3ccc(O)cc3)cc2)[C@@]12C(=O)Nc1ccccc12 | inactive: 1.06 |
| C[C@@H]1CN([C@@H](C)CO)C(=O)c2cc(C3=CCCCC3)cnc2O[C@H]1CN(C)C(=O)CN1CCOCC1 | inactive: 0.99 |
| Cc1ccc(-c2noc([C@H](C)c3ccc(CC(C)C)cc3)n2)cc1 | inactive: 0.915 |
| Cc1ccc(S(=O)(=O)N(C)C[C@@H]2OCCCC[C@H](C)Oc3ccc(NC(=O)Nc4ccccc4)cc3C(=O)N([C@@H](C)CO)C[C@@H]2C)cc1 | inactive: 0.934 |
| Cc1occc(=O)c1O | inactive: 0.98 |
| COc1cccc(NC(=O)N(C)C[C@@H]2Oc3cc(Br)ccc3S(=O)(=O)N([C@@H](C)CO)C[C@H]2C)c1 | inactive: 1.02 |
| C[C@H]1CN([C@@H](C)CO)C(=O)c2cccc(NC(=O)C3CCOCC3)c2O[C@@H]1CN(C)S(=O)(=O)c1ccccc1 | inactive: 1.03 |
| C[C@H](CO)N1C[C@H](C)[C@H](CN(C)CC2CC2)OCCCC[C@H](C)Oc2ccc(NC(=O)Nc3ccc(C(F)(F)F)cc3)cc2C1=O | inactive: 0.968 |
| C[C@@H]1CN([C@@H](C)CO)C(=O)c2cc(NC(=O)c3ccncc3)ccc2O[C@@H](C)CCCCO[C@@H]1CN(C)C(=O)C1CCCCC1 | inactive: 1.01 |
| O=C(C[C@@H]1C[C@@H]2c3cc(NC(=O)Cc4ccncc4)ccc3O[C@@H]2[C@H](CO)O1)NCc1ccc2c(c1)OCO2 | inactive: 1.01 |
| CCCNC(=O)Nc1ccc2c(c1)C(=O)N(C)C[C@@H](OC)[C@H](C)CN(Cc1ccc(-c3ccccn3)cc1)[C@@H](C)CO2 | inactive: 0.994 |
| CO[C@H]1C[C@H](O[C@H]2[C@H](C)O[C@@H](O[C@@H]3/C(C)=C/C[C@@H]4C[C@@H](C[C@]5(C=C[C@H](C)[C@@H](C6CCCCC6)O5)O4)OC(=O)[C@@H]4C=C(C)[C@@H](O)[C@H]5OC/C(=C\C=C\[C@@H]3C)[C@]54O)C[C@@H]2OC)O[C@@H](C)[C@@H]1O | inactive: 0.95 |
| C[C@@H]1CN([C@H](C)CO)C(=O)Cc2cc(NC(=O)Nc3ccccc3)ccc2O[C@@H]1CN(C)C(=O)Nc1cccc2ccccc12 | inactive: 1.02 |
| Cc1noc(C)c1S(=O)(=O)N(C)C[C@H]1OCCCC[C@@H](C)Oc2ccc(NS(C)(=O)=O)cc2C(=O)N([C@H](C)CO)C[C@@H]1C | inactive: 0.938 |
| C[C@H](CO)N1C[C@H](C)[C@H](CN(C)Cc2ccc(C(=O)Nc3ccccc3N)cc2)Oc2ccc(NC(=O)Nc3ccc4c(c3)OCO4)cc2CC1=O | inactive: 1.02 |
| COc1ccc2c3c([nH]c2c1)[C@@H](CO)N(C[C@]13CN(C1)S(=O)(=O)c1cn(cn1)C)C(=O)Nc1ccc(cc1)F | inactive: 1 |
| C[C@H](CO)N1C[C@H](C)[C@H](CN(C)S(=O)(=O)c2cn(C)cn2)Oc2ncc(/C=C/c3ccccc3)cc2C1=O | inactive: 1.02 |
| C[C@@H]1CN([C@@H](C)CO)C(=O)c2cc(NS(=O)(=O)c3ccccc3)ccc2O[C@@H]1CN(C)S(=O)(=O)c1ccc(F)cc1 | inactive: 0.998 |
